# Source: the supplement of paper PMC3334620
# The full ranking holds about 33,000 sequences; the median of “E-score (-0.5 to 0.5)” is about -0.056, and the highest 2% start at about 0.38. This is one part of the list.
# Molecular target: Stb4 (UniProt P50104)
# Assay: PBM E-score (8-mer binding enrichment) (E-score (-0.5 to 0.5)); higher = stronger / more preferred TF binding; most listed sequences are background and not binding sites
# Settings: protein concentration: 200 nM; construct: GST-DNA-binding domain
# Procedure, shortened: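 Universal all-10-mer Agilent arrays, fresh or stripped once, were converted to double-stranded form by primer extension. GST-tagged yeast transcription factors from PURExpress in vitro transcription/translation, full-length or DNA-binding domain only, were applied at about 100-200 nM and detected with fluorescent anti-GST. After masliner normalisation, the Universal PBM Analysis Suite scored each ungapped eight-base word together with its reverse complement by E-score.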
row,Sequence,PBM E-score
1,AGCTTTTC,0.0828
2,AGAGGTCG,-0.0167
3,AGGTTACG,-0.164
4,CTTGTAAC,-0.0834
5,CTCGAGTA,-0.233
6,GCCCTTAC,-0.0314
7,ACCACCAG,-0.0538
8,CTATAAGA,-0.272
9,GCGGGCAC,0.0927
10,CAGGGGCC,-0.188
11,ACTCGAGA,-0.0526
12,TCCGTCGA,0.244
13,GTCATCGA,-0.305
14,CTCCTCAG,-0.0599
15,TCGAAACA,0.0385
16,CTTCCAGC,-0.0821
17,CAGTTTAA,-0.174
18,ACCTGGGA,-0.178
19,ACATTAGT,-0.122
20,GTAAGCAA,-0.0645
21,CCGCAGTA,0.0209
22,TACGAGGA,-0.193
23,AATACTTA,0.0173
24,TAATTCGA,-0.317
25,ATACTTAA,-0.00531

row,Sequence,PBM E-score
1,AATGCAAC,-0.147
2,CTTTTGGC,-0.233
3,CTGACATC,-0.0449
4,ATTTCAGC,-0.188
5,ACAGGCAA,-0.163
6,CATAGGGC,-0.0367
7,GACGGGTA,0.267
8,ATTGCCAA,-0.00793
9,AGAGCGGC,0.101
10,ATATGATC,-0.0133
11,GCCAAAGA,-0.174
12,GTGAAGCA,-0.201
13,AATGTGGA,-0.0863
14,CATTCAGG,-0.0881
15,ACCGATGC,0.228
16,CAAGAGCG,-0.136
17,GTAGACAC,0.0353
18,GAATGCGC,0.193
19,CGGTGTGA,0.105
20,CCTGGGGA,-0.351
21,ATGACTAA,-0.225
22,GCTGAGCC,-0.0483
23,AGCTTCAG,-0.13
24,AAGAAAGG,-0.218
25,AGAAAATG,0.0192

row,Sequence,PBM E-score
1,CATGCGAG,-0.118
2,ATCGAAGC,0.00427
3,ACAGGGAT,-0.125
4,ACCAACCA,-0.071
5,CAGGGACC,-0.176
6,CGTCGTTC,0.184
7,CAGGTAAA,0.0185
8,CACACCGA,0.202
9,ACATAACT,-0.108
10,GGTTGACA,-0.0583
11,CCCATTAC,-0.104
12,GGGCCGAC,0.311
13,GATACTGA,-0.00363
14,GCTGCTAC,-0.207
15,CCATCTAG,-0.18
16,CGTTTACA,-0.078
17,CTTGCTAA,-0.276
18,ACTCGGCG,0.326
19,ACCAAGAT,-0.0531
20,AGTGAAGG,-0.224
21,ACCGTATG,-0.168
22,CCACCAAA,-0.138
23,CCATGGGA,-0.117
24,AGCCCCAT,-0.213
25,CTTCCGTC,0.341

row,Sequence,PBM E-score
1,CATGAGAA,-0.0981
2,CCTGGGTA,-0.161
3,CCATTCAC,0.0131
4,AAAACCCT,-0.00393
5,CCGGGGCA,0.17
6,CCGCGGCA,0.278
7,AGCTTGAG,-0.15
8,CAACCATG,-0.055
9,GTGGCTCA,-0.125
10,ATCTCCAG,-0.197
11,AAAGCACC,0.038
12,CGTATGAG,-0.0445
13,ATCTGTGA,0.0405
14,CGCTTCCC,0.188
15,TAGTAGCA,-0.0308
16,AAAATCTG,-0.0543
17,GATGGGCA,-0.0313
18,TAATGCTA,-0.101
19,ACAGTCCA,-0.3
20,CAAGTCAA,-0.25
21,ACAAGAGG,-0.19
22,GGTTCCTA,-0.116
23,GATGGGAA,-0.0418
24,CCCCAACA,-0.282
25,CCTGAAGG,-0.22

row,Sequence,PBM E-score
1,GCACAAAC,-0.0633
2,CGCCCCGA,0.338
3,AGGTTAAG,-0.175
4,CTAGCGAA,-0.25
5,AGATGAAA,-0.0887
6,GGCGAGCC,0.0688
7,CGGTAACG,0.286
8,CGGCCTAA,0.163
9,CAGACGCA,-0.204
10,CATCGATC,-0.0474
11,CGTAAGGA,-0.195
12,GTGACGTA,-0.0498
13,AGAGTTCG,0.193
14,AGTTCCAG,-0.136
15,CCTCTCCC,0.0609
16,ATCGATGA,-0.158
17,AGTGCCGC,0.123
18,ACCTACGA,-0.199
19,CCAGTCGC,0.164
20,CACTGATA,-0.175
21,CCTCAGAA,-0.323
22,CAGGCCTA,-0.181
23,ATAAGATG,-0.0794
24,ATACCACC,0.0265
25,CATGCTAG,-0.223

row,Sequence,PBM E-score
1,CATATGTC,-0.0451
2,GTCGACTA,-0.101
3,CTTGCTCC,0.0505
4,GGTTCTAC,0.0111
5,CTCTATCC,0.126
6,GCTCAAAA,-0.00731
7,AATTCAAG,-0.00322
8,ACTTGGGA,-0.0874
9,CGGTGGTC,0.131
10,ACATTCAT,-0.13
11,AGCCAGGA,-0.311
12,ACCAGCAG,-0.38
13,CACTCTAC,0.0151
14,TCAAACCA,0.125
15,ATCGGGCA,0.125
16,TGCAACAA,-0.085
17,GGCTCACC,-0.0934
18,GTATTAGA,-0.0494
19,GCGGAGCC,0.0792
20,AAGGAAAG,-0.103
21,CCCTTATA,-0.16
22,CTCAAGTC,-0.234
23,AACGGGGC,0.0461
24,ATAGGACC,-0.0836
25,AATATGGT,0.0218

row,Sequence,PBM E-score
1,AAACGCCA,0.00323
2,CTTGTGAA,-0.198
3,AACGTCAA,-0.114
4,CGTAGTCC,-0.0835
5,AAGGTGCA,-0.0859
6,TTATTAAA,-0.085
7,CTCATGCA,-0.217
8,GGCATGCC,0.156
9,GATTGATA,-0.139
10,AGATTCGA,-0.352
11,AAAGACCT,-0.111
12,AGTAGCCA,-0.331
13,ATTTTCTC,0.00853
14,CATGCTGC,-0.136
15,CTGATAGA,-0.0412
16,CTCCTAAG,-0.254
17,GGGTGATA,0.0946
18,CACAGACA,-0.213
19,CCGATAAA,0.287
20,ATGCATTG,-0.171
21,AGGGGCCG,0.0651
22,CAGATGGA,0.0763
